# Laboratory results: PMC12136788
# This is one part of the list.
# B1: chr2:205796522:205796663:+|3pUTR|ENSG00000118257|msi1|FALSE|unique (ssRNA)
# RNA: GGGAGUUCUACAGUCCGACGAUCGUUUUUAUUAAGUGCCUUGAAAAAAUGAAGAAAAAUGUAUUUUCCCUUUAUGUAAAAAUUAGUGAAUAUCUUAUGAAUUAAGGCAUUCCUCUUUCCCUAACCCCGAUGGCUCCAUUCCCACAACAGAGGAUUGAGCAUCA
# B2: chr1:2308404:2308505:+|3pUTR|ENSG00000157933|unk|total|mutant (ssRNA)
# RNA: GGGAGUUCUACAGUCCGACGAUCUUCUUUGCUUUUGUUUUCUUUGCGGUUGUUCUGUGUGCAUGGAUUCCACACCUCUGCCGCCGGCCGAUCCGUCAGCGGGCAUUAUUACCGUGUCUUGUAAAGGGUCGGUUUUGUUAUGCACAACAGAGGAUUGAGCAUCA
# B3: chr11:86278520:86278536:+|CDS_3pUTR|ENSG00000074266|msi1_unk|total|mutant (ssRNA)
# RNA: GGGAGUUCUACAGUCCGACGAUCUGAUGCCAGUAUUUGGCGCUGGGAUCGACUUCGAUAAAAUACUUUUGCCUAAUCAAAAUCCGAGUGUGUUUGUUGUCUGUGUAAAACCGAAUUAAUGUAUCUUGCCCGUAAGGGCACGUACAACAGAGGAUUGAGCAUCA
# B4: chr20:58459100:58460789:-|three_prime_utr|ENSG00000198768|control|control|control (ssRNA)
# RNA: GGGAGUUCUACAGUCCGACGAUCACAUCAGGAUGGCGGCUCUGGACACCCAUUCAACCCUUCAGACUCCCUCCUGGCAGCUGUAGGGAAGGAACCAUUCUCCUCUGCUCUGUCAUGGAUGGAUGCACAGCCCCACUGCUUCCACAACAGAGGAUUGAGCAUCA
# B5: chr4:137519872:137519973:-|3pUTR|ENSG00000189184|unk|total|mutant (ssRNA)
# RNA: GGGAGUUCUACAGUCCGACGAUCAACUAUUCAUUUUCCGCUUUUGUCUCCAGUGCAUGAUCUCAUAUUUUUGCUUUUAUUUUCCGUAUAAGAACAUUUAUAAAAUCAUAUUUUUGUUACUGCAAUUGUUUUAUUUGUUGUGUGCAACAGAGGAUUGAGCAUCA
# B6: chr5:96781692:96781854:-|CDS|ENSG00000164307|control|control|control (ssRNA)
# RNA: GGGAGUUCUACAGUCCGACGAUCGUGACCUUGGCAGUGUUUGCUGUGGGGGCCCAGAGCACAGAAGGCUGGGAUUUUCUUUAUAGUAAAUAUCAGUUUUCUUUGUCCAGUACUGAGAAAAGCCAAAUUGAAUUUGCCCUCUGCCAACAGAGGAUUGAGCAUCA
# B7: chrX:119243754:119243940:+|3pUTR|ENSG00000101856|msi1|FALSE|unique (ssRNA)
# RNA: GGGAGUUCUACAGUCCGACGAUCAGCUGCAAAAAAGCAUAUUUUCUGUGUUUCUGGACUGCACUGUUGUCCUUGCCCUCACAUAGACACUCAGACACCCUCACAAACACAGUAGUCUAUAGUUAGGAUUAAAAUAGGAUCUGACAACAGAGGAUUGAGCAUCA
# B8: ENSG00000124766:be:win_2551|3pUTR|ENSG00000124766|bound_else_gene|NA|bound_elsewhere_windowed (ssRNA)
# RNA: GGGAGUUCUACAGUCCGACGAUCUCUUUUAAAGAUUUCUGUAUAAGACUGUUGAGCAGUUUUUAAAAUAGUGUAGGAUAAUAUAAAAAGCAGAUAGAUGGCGCUAUGUUUGAUUCCUACAACGAAAUUAUCACCAGCUUUUUUCAACAGAGGAUUGAGCAUCA
# B9: chr2:32414998:32415099:+|CDS|ENSG00000115760|unk|FALSE|unique (ssRNA)
# RNA: GGGAGUUCUACAGUCCGACGAUCCCAUGUUUAUUAGCUGGAGGUUUAUUAACAUAUAAAUCUCCUGCUACCUCACCCAUUAGUAGUAAUUCUCACAGGUCACUGGAUGGUUUAAGCAGAACUCAGGGUGAAAGUAUAUCAGAACAACAGAGGAUUGAGCAUCA
# B10: ENSG00000198589:be:win_8551|CDS_3pUTR|ENSG00000198589|bound_else_gene|NA|bound_elsewhere_windowed (ssRNA)
# RNA: GGGAGUUCUACAGUCCGACGAUCCGCUACUGAUGGUGACAGCUGUACAUCAACUCUGCCCCUAGGAUGAGCAGAAGUACCUGGAGCAUCAUUCUCUUCUACCACAUCUGAAUGUAACUUAAAUUUGCUCAAAGAAGCAAAAUACAACAGAGGAUUGAGCAUCA
# B11: chr5:179730620:179730726:+|3pUTR|ENSG00000127022|msi1_unk|FALSE|overlapping (ssRNA)
# RNA: GGGAGUUCUACAGUCCGACGAUCGAGCUUUAAAUCAUUAGAGCUUAAAUUGUCAGAUCGUUCAUUGCCUUUCCAGGGUUAUUUAGUAAAGUUUGUUGAAAACAAAAACGCCUUUUCUUGGUUCUUUUUUCAGUUAUUUUGAAGCAACAGAGGAUUGAGCAUCA
# B12: ENSG00000197006:stop:overlap|stop_codon|ENSG00000197006|stop_codon|NA|stop_codon (ssRNA)
# RNA: GGGAGUUCUACAGUCCGACGAUCUUGCCCUUGUCCUCCCCUUUCAUCCCUAUGUGGAAAACGGUAAGUGUGGUCAGUCAGGCUAGCUCUUACUGAGGAUAGCUGUUUAUUGGUAUUUGUGAUUUUGUGCUGUGUACAAUUAAACAACAGAGGAUUGAGCAUCA
# B13: chr14:50159683:50159784:-|CDS|ENSG00000100485|unk|total|mutant (ssRNA)
# RNA: GGGAGUUCUACAGUCCGACGAUCGAGGAAAAUACAAAUUUGUGAUAAAGAAGAUACUUGUGAGCACAAGCAUGCAUUUGAAUCCGUAUCCAAAGAUGAGAACAGCAUAAUAUUUGCUGCUAAGUCUGCUGAAGAAAAAAACAACAACAGAGGAUUGAGCAUCA
# B14: ENSG00000136010:stop:overlap|stop_codon|ENSG00000136010|stop_codon|NA|stop_codon (ssRNA)
# RNA: GGGAGUUCUACAGUCCGACGAUCACUUAGGUGAGGAAGCUCUAAAUGAAUAUCUCAAAACCAAGACGGUGACACUGGAAUAUUAGAGCAACACCAUCAUCAGGAAAGCCUUGACAGACAGCCCUUUACAACUCUGGACACACUCAACAGAGGAUUGAGCAUCA
# B15: chr7:74195289:74195308:+|CDS_3pUTR|ENSG00000106682|msi1_unk|total|mutant (ssRNA)
# RNA: GGGAGUUCUACAGUCCGACGAUCGCGACGCCCCUCAAUCAAGCCGCCAAUCCCAACUCUGCUAUCUUCGGGGGUGCCAGGCCCCGAGAGGAAGUCGUUCAAAAGGAGCAAGAAUGAGCCUGCGGUUGGGAGGGAAUGGGGCGUCAACAGAGGAUUGAGCAUCA
# B16: chr2:10440579:10440691:-|3pUTR|ENSG00000115758|unk|total|mutant (ssRNA)
# RNA: GGGAGUUCUACAGUCCGACGAUCUAACUGCAAGUUCCGCUUGAAUUAAGGGAUUUGGGGGGACCAUGUAACUUAAUUACUGCCCGUUUUGAAAUGUCUUUGUAAGAGCCGGGUCGCCAUGAUGCAGCCAUAUGGAAGACCCGGCAACAGAGGAUUGAGCAUCA
# B17: chr9:91409354:91409467:-|CDS|ENSG00000165030|unk|FALSE|unique (ssRNA)
# RNA: GGGAGUUCUACAGUCCGACGAUCAAUGAAAGACAGUGGCUACAAAGUUUCUGACCCAGAGAACUUGUAUUUGAAGCAGGGGAUAGCAAACUUAUCUGCAGAGGUUGUCUCACUCAAGAGACUUAUAGCCACACAACCAAUCUCCAACAGAGGAUUGAGCAUCA
# B18: chr12:118033712:118033825:-|3pUTR|ENSG00000176871|unk|FALSE|unique (ssRNA)
# RNA: GGGAGUUCUACAGUCCGACGAUCCCUCCGCUGGGAACGAUGGCUUCUGCCUAGUACCUAUCCUUGUGUUUCUGAUGCAGUGGUAGCAUUGGUUCAAGUUCUCUCCUGCUGUGGUCAGAGUUGCUUCGAUGUUGGCCAAGUGCUCAACAGAGGAUUGAGCAUCA
# B19: chr1:62654060:62654161:-|CDS|ENSG00000116641|unk|total|mutant (ssRNA)
# RNA: GGGAGUUCUACAGUCCGACGAUCCUUGUUUUCUACCCAUCUCUUAUCCCAACUUUUUACAAAGGUGCCCCUUACCGAAGCAGCCGAUCCAGUGGAUUUGGAAGAUUACCUCAUUACUCAUCCUUUGGCUGUGGAUUCUGGGCCCAACAGAGGAUUGAGCAUCA
# B20: chr7:2728618:2728646:-|3pUTR|ENSG00000146535|msi1_unk|FALSE|overlapping (ssRNA)
# RNA: GGGAGUUCUACAGUCCGACGAUCUUUAAUUUCACUGUUAAUCCUUAUUGUCUUUUUUAUUAAGAUGUUGGAAAAGCAGGAGGUAGUUGUGCCUCAAUUAUUGCAAAAAUGUAACAAUAAAGUUCCUCAAAAUAAGAUCUGUUCCAACAGAGGAUUGAGCAUCA
# B21: chr1:94517210:94517403:+|3pUTR|ENSG00000117528|unk|total|mutant (ssRNA)
# RNA: GGGAGUUCUACAGUCCGACGAUCAACAAAUUAACCCGAUACAGAAUAAUGGAGAACAAGUUGUUAAAACAUUUAAUAUUAUACCGGAUAUUGCUAAUUGUGUAUAUGUUGGUUUAAUUAAUAAUAUGUACUAAGAAUGUCCUUCAACAGAGGAUUGAGCAUCA
# B22: chr21:25881051:25881209:-|3pUTR|ENSG00000142192|msi1_unk|FALSE|overlapping (ssRNA)
# RNA: GGGAGUUCUACAGUCCGACGAUCUUUUUUUUCCAUGACUGCAUUUUACUGUACAGAUUGCUGCUUCUGCUAUAUUUGUGAUAUAGGAAUUAAGAGGAUACACACGUUUGUUUCUUCGUGCCUGUUUUAUGUGCACACAUUAGGCAACAGAGGAUUGAGCAUCA
# Target: MSI1 full-length (mouse, UniProt Q61474 1-362)
# Assay: nsRBNS (natural sequence RNA bind-n-seq); RBNS binding buffer (assumed for nsRBNS): 25 mM Tris pH 7.5, 150 mM KCl, 3 mM MgCl2, 0.01% Triton X-100, 500 ug/ml BSA, 20 U/ml SUPERase-In, 4 C; UNK is unkempt and MSI1 is Musashi-1; names of the RNAs are library labels; protein concentration not given here; high values mean tight binding
# UniProt Q61474, sequence (Q61474 whole entry): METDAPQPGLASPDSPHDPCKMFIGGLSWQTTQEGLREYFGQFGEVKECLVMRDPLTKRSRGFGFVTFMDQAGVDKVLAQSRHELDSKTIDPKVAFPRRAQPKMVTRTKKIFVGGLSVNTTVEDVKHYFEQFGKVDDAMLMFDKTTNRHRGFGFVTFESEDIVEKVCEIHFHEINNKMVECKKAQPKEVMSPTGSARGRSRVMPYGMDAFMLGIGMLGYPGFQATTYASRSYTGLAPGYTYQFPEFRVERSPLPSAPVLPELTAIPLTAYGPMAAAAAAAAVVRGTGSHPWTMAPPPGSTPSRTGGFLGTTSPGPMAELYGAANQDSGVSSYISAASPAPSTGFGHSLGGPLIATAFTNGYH
row,Binder,binding signal
1,B1,1.33 enrichment R
2,B2,0.357 enrichment R
3,B3,0.216 enrichment R
4,B4,0.42 enrichment R
5,B5,0.825 enrichment R
6,B6,0.53 enrichment R
7,B7,7.92 enrichment R
8,B8,2.23 enrichment R
9,B9,0.596 enrichment R
10,B10,0.51 enrichment R
11,B11,1.41 enrichment R
12,B12,0.761 enrichment R
13,B13,0.295 enrichment R
14,B14,0.312 enrichment R
15,B15,0.371 enrichment R
16,B16,0.57 enrichment R
17,B17,0.662 enrichment R
18,B18,0.295 enrichment R
19,B19,0.571 enrichment R
20,B20,0.334 enrichment R
21,B21,0.723 enrichment R
22,B22,1.09 enrichment R
